Assay results: EP1598418A1, “STABILISED COMPOSITION FOR FLUORIMETRIC, COLORIMETRIC OR CHEMOLUMINESCENT ASSAYS, KITS CONTAINING SAME AND PRODUCTION METHOD THEREOF” (BIOTOOLS BIOTECHNOLOGICAL & MEDICAL LABORATORIES, S.A., priority 2003, dated 2004)

Test system: TaqMan probes
Test: Real-time amplification with desiccated, stabilised reaction mixture with TaqMan probes after storage (Example 2)
Parameters: key: Ng, negative results; +, weak positive, under 50% of the activity of the fresh mixture; ++, positive with 50-90% of the activity of the fresh mixture; +++, positive with activity level not less than 90% of the activity of the fresh mixture
Conditions: vs fresh mixture
Procedure: To test the efficiency of the TaqMan probes included in desiccated and stabilised reaction mixtures, reaction mixtures were prepared for amplification of the same region described for example 1, using the same reagents there described. […] In addition, 1 µl in a concentration of 10mM was added of the primers A1 (^5' -[…]-^3') and 1 microlitre of primer A2 (^5'-[…]-^3') at a concentration of 10µM. Also to each phial was added 1 microlitre of the hydrolysis probe A5 (TaqMan probe: ^5'-FAM […] TAAFTAC-TAMRA-^3') at a concentration of 10mM, containing a FAM group at end 5'and a TAMRA group at locus 3'.
To do so, 50 ng of DNA of each problem sample was added to each tube to a final volume of 20 microlitres. […] In parallel, in order to check the evolution of the activity of the desiccated tubes, DNA samples were amplified using a fresh mixture in the same amplification conditions.
The result of the amplification reaction was analysed in every case by inspecting the fluorescence curve and determining the crossing point, following the instructions of the equipment software, for each reaction tube both fresh and desiccated and stabilised. […] The samples of patients infected with P. falciparum gave positive results in every case, while patients infected with other species gave negative results in every case.

OCC(O)CO [Glycerol]
activity of stabilising mixtures (conserved at T 25 °C): Ng
activity of stabilising mixtures (conserved at T 45 °C): Ng

NCCCC[C@H](N)C(=O)O [Lysine]
activity of stabilising mixtures (conserved at T 25 °C): Ng
activity of stabilising mixtures (conserved at T 45 °C): Ng

OC[C@H]1O[C@@](CO)(O[C@H]2O[C@H](CO)[C@@H](O)[C@H](O)[C@H]2O)[C@@H](O[C@H]2O[C@H](CO)[C@@H](O)[C@H](O)[C@H]2O)[C@@H]1O [Melezitose]
activity of stabilising mixtures (conserved at T 25 °C): Ng
activity of stabilising mixtures (conserved at T 45 °C): Ng

OC[C@H]1O[C@H](OC[C@H]2O[C@H](O[C@]3(CO)O[C@H](CO)[C@@H](O)[C@@H]3O)[C@H](O)[C@@H](O)[C@@H]2O)[C@H](O)[C@@H](O)[C@H]1O [Rafinose]
activity of stabilising mixtures (conserved at T 25 °C): Ng
activity of stabilising mixtures (conserved at T 45 °C): Ng

OC[C@@H](O)[C@@H](O)[C@H](O)[C@@H](O)CO [Sorbitol]
activity of stabilising mixtures (conserved at T 25 °C): Ng
activity of stabilising mixtures (conserved at T 45 °C): Ng

OC[C@H]1O[C@@](CO)(O[C@H]2O[C@H](CO)[C@@H](O)[C@H](O)[C@H]2O)[C@@H](O)[C@@H]1O [Sucrose]
activity of stabilising mixtures (conserved at T 25 °C): Ng
activity of stabilising mixtures (conserved at T 45 °C): Ng

OC[C@H]1O[C@H](O[C@H]2O[C@H](CO)[C@@H](O)[C@H](O)[C@H]2O)[C@H](O)[C@@H](O)[C@@H]1O [Trehalose]
activity of stabilising mixtures (conserved at T 45 °C): Ng
